Source: PMC12040169 (PLOS Biology, 2025)
This is one part of the list.

What follows are compounds tested on T1, C. trachomatis L2/434/Bu expressing GFP (CTL2-GFP). Details: total inclusion area; 28.5 h, 10 µM; inhibitor.
T1 construct: L2/434/Bu GFP intracellular growth in HeLa cells
Set-up: species or system HeLa; C. trachomatis total inclusion area by high-content imaging, normalised to DMSO
In short: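 After bulk GFP and resorufin fluorescence reads, cells were fixed, stained with Hoechst and imaged by high-content microscopy. Inclusion area and number (GFP) stood in for chlamydial growth, nuclei count (Hoechst) for host cell viability. MICs were derived as for the bulk readout.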

| Structure (SMILES) | % of control remaining |
| --- | --- |
| OCCCNCC(O)CN1c2ccccc2Sc2ccccc21 (centres unmarked) [CBK027632G] | 92.044 |
| COc1cc(-c2cc(Nc3ccc(N(C)C)cc3)ncn2)cc(OC)c1OC [CBK090945] | 13.6846 |
| Oc1cccnc1SCc1nc2ccccc2s1 [CBK016367] | 70.0459 |
| Cc1nccn1CCCn1cncc1-c1ccc2c(c1)CCC(C)N2C (centres unmarked) [CBK281811] | 106.726 |
| Cn1c(CN2CCN(C(=O)Nc3ccccc3)CC2)nc2cc([N+](=O)[O-])ccc21 [CBK268260] | 88.8842 |
| COc1ccc2[nH]c3c(c2c1)CCOC31CCN(CCC(F)=C(F)F)CC1 [CBK040118] | 70.3211 |
| Oc1cc(C(F)(F)F)nc(CCc2ccc(Cl)cc2)n1 [CBK003678] | 86.3894 |
| CS(=O)(=O)N1CC2(CCN(Cc3ccccc3F)CC2)c2ccccc21 [CBK084004] | 88.9057 |
| Cc1ccc2c(c1)C1(CCN(C/C=C\c3ccccc3)CC1)NC(=O)C2 [CBK040216] | 93.3134 |
| C=CCN1C(=O)C2(CC(=O)N(CC(=O)N(C)C)C2=O)c2cc(OC)ccc21 (centres unmarked) [CBK075227] | 99.3116 |
| COc1cccc(NC(=O)CC(CN2CCN(c3ccccc3)CC2)C(=O)O)c1 (centres unmarked) [CBK286789] | 107.043 |
| Nc1cc(=O)[nH]c(=O)n1CCc1ccccc1 [CBK269984] | 87.6937 |
| Cc1nc2ccc(NC(=O)N3CCC(c4ccccc4)C3)cc2s1 (centres unmarked) [CBK266512] | 97.858 |
| COc1ccc2[nH]c3c(c2c1)CCN(CCc1ccc(F)cc1)C3 [CBK082819T] | 92.7737 |
| CC(C)N1CCC(N(C)Cc2nc3ccccc3[nH]2)CC1 [CBK283021] | 102.954 |
| CN1CCC(N(C)C(=O)NCc2ccc(Cl)c(Cl)c2)C1 (centres unmarked) [CBK155996] | 94.1618 |
| CC(=O)NCC(=O)N1CCC2(C/C=C/CNC(=O)c3ccccc3OCCNC2=O)CC1 [CBK292006] | 129.096 |
| CC1(C#N)CCCN(Cc2c[nH]nc2C(=O)O)C1 (centres unmarked) [CBK307010] | 41.0523 |
| COc1ccccc1C(=O)Nc1ccc(Cl)c(C(=O)O)c1 [CBK287034] | 73.9386 |
| COc1ccc(/C=C/C2=CCN(C)CC2)cc1Cn1cccn1 [CBK283859] | 100.899 |
| O=C(O)CCn1cc(Br)c([N+](=O)[O-])n1 [CBK286916] | 113.429 |
| N#Cc1ccc(S(=O)(=O)N2CCC(OCc3ccncc3)C2)cn1 (centres unmarked) [CBK305478] | 94.3507 |
| O=C1C2(c3ccccc3)CN(CCCO)CC1(c1ccccc1)CN(CCCO)C2 [CBK265912] | 83.0998 |
| O=C(NC1CCCCC1)c1csc(-c2ccncc2)n1 [CBK288591] | 117.895 |
| OCCCNc1cc(Nc2ccccc2)n2nccc2n1 [CBK037078] | 114.361 |
| CC(C)(N)CNC(=O)c1cc(C(C)(C)C)nn1Cc1ccc(Cl)cc1Cl [CBK107296] | 28.1905 |
| CCN(C)c1c(C)nc2c(OCc3ccccc3C(=O)OC)cccn12 [CBK147321] | 85.0797 |

| Structure (SMILES) | % of control remaining |
| --- | --- |
| COc1ccc(O)c(-c2c(-c3ccc(C)cc3)n[nH]c2C)c1 [CBK287961] | 123.758 |
| CCNc1cncc(-c2ccccc2)n1 [CBK065847] | 120.349 |
| O=C(/C=C/C=C/c1ccccc1)CC1(O)C(=O)N(Cc2cccc3ccccc23)c2ccccc21 (centres unmarked) [CBK264744] | 94.0894 |
| CCC1CCCCN1C(=O)c1cc2ccccc2o1 (centres unmarked) [CBK078549] | 89.1107 |
| O=C(CSc1nc(N2CCOCC2)nc(N2CCOCC2)n1)c1ccc([N+](=O)[O-])cc1 [CBK269107] | 95.7092 |
| CC1=C(C)C(=NNC(N)=S)C(C)=C(C)C1=NNC(N)=S [CBK261262] | 18.4503 |
| O=C(Nc1ccc2nsnc2c1NC(=O)c1ccc2nsnc2c1)c1ccc2nsnc2c1 [CBK264309] | 102.069 |
| COc1ccccc1CC(=O)N1CCCC1c1nc2ccccc2[nH]1 (centres unmarked) [CBK285517] | 100.218 |
| CNC(=O)c1ccc(NC(=O)N2CCCCC2c2ccnn2C)cc1 (centres unmarked) [CBK305521] | 86.1441 |
| CN(C)CCNc1c2c(nc3ccccc13)CCC2 [CBK263732C] | 106.882 |
| Cn1cc(C2CCCCCN2C(=O)c2nn(C)cc2Cl)cn1 (centres unmarked) [CBK284972] | 119.838 |
| Oc1cccc2ccc(-n3ccnc3)nc12 [CBK017812] | 124.634 |
| Cc1ccccc1C(NC(=O)C1CCN(C(=O)NCCc2ccccc2)CC1)c1ncccc1C (centres unmarked) [CBK060409] | 103.85 |
| O=c1c(N2CCN(CCOc3ccccc3)CC2)nccn1CCOc1cc(F)c(F)cc1F [CBK045934C] | 105.307 |
| CCCNC(=O)NCCc1cccs1 [CBK043675] | 110.846 |
| S=c1n(CN2CCC3(CC2)OCCO3)nc(-c2ccccc2Cl)n1-c1ccccc1 [CBK265222] | 95.2194 |
| COc1ccccc1N1CCN(C(=O)c2ccccc2C(=O)c2ccccc2)CC1 [CBK091506] | 88.0469 |
| CC(=O)NC(=S)Nc1ccc(Oc2ccccc2)cc1 [CBK288454] | 39.41 |
| CCCC(=O)Nc1ccc(OCc2ncc(C(C)C)o2)c(C(C)=O)c1 [CBK305516] | 126.561 |
| COc1ccc(-n2cc(-c3ccccc3C(F)(F)F)nn2)cc1OC [CBK112965] | 90.6387 |
| COc1ccc2c(c1)C1(Nc3ccccc3C(=O)N1c1ccccc1)C(=O)N2 (centres unmarked) [CBK103747] | 74.5711 |
| Cc1ccccc1OCC(=O)NN1CCN(C)CC1 [CBK265783C] | 102.224 |
| O=C(O)c1c(Cl)c(C(=O)O)c(C(=O)O)c(Cl)c1C(=O)O [CBK261177] | 104.809 |
| CCN(CC)C(=O)CN1CCC(Oc2cncc(OCc3ccc(Cl)c(Cl)c3)n2)C1 (centres unmarked) [CBK084431] | 95.3815 |
| CC(C)(C)C(=O)N1CCC(n2nc(-c3cccs3)ccc2=O)CC1 [CBK284182] | 82.723 |
| COc1cccc(CN2CCN(C(=O)c3ccco3)[C@@H](C)C2)c1 [CBK284267] | 66.9725 |
